From article PMC11555233 come the findings set out here.

The chains behind the UniProt entries cited, without tags or fusion partners. Where a name states a change or a piece, a line headed by the entry shows the natural chain unless it says otherwise. A line that says so, or that is headed by a name, gives the form on record, which may keep a tag or linker.
UniProt Q13485: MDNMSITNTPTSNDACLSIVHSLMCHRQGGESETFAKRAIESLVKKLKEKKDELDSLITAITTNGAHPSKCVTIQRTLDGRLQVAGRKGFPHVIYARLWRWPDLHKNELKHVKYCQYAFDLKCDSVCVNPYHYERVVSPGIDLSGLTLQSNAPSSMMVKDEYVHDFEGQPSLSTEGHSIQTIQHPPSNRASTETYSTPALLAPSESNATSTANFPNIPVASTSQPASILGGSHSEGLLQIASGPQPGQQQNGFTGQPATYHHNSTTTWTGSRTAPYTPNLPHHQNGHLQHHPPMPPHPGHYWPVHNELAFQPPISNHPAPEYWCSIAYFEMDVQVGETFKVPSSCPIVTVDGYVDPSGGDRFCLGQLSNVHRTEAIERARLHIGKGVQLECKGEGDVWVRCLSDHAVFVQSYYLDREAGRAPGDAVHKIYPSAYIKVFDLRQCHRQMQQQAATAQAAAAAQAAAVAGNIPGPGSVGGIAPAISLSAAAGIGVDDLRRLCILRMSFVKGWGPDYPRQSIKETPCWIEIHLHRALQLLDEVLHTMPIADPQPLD
Flag-TurboID-SMAD4-2LA (Q13485, form named): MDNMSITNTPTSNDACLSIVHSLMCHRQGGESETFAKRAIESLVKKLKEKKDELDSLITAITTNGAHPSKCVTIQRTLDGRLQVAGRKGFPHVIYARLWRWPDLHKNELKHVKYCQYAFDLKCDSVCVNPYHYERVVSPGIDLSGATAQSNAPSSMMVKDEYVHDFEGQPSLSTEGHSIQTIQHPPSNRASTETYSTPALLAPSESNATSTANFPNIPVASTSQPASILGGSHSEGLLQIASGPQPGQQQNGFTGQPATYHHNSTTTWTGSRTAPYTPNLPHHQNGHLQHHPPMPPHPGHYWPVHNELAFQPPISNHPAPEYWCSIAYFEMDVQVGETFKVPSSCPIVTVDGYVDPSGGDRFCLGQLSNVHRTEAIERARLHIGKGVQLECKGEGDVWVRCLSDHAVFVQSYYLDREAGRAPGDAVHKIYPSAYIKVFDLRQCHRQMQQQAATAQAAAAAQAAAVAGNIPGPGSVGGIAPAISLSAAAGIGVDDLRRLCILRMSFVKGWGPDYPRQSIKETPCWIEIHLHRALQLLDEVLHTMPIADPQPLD
UniProt P09874: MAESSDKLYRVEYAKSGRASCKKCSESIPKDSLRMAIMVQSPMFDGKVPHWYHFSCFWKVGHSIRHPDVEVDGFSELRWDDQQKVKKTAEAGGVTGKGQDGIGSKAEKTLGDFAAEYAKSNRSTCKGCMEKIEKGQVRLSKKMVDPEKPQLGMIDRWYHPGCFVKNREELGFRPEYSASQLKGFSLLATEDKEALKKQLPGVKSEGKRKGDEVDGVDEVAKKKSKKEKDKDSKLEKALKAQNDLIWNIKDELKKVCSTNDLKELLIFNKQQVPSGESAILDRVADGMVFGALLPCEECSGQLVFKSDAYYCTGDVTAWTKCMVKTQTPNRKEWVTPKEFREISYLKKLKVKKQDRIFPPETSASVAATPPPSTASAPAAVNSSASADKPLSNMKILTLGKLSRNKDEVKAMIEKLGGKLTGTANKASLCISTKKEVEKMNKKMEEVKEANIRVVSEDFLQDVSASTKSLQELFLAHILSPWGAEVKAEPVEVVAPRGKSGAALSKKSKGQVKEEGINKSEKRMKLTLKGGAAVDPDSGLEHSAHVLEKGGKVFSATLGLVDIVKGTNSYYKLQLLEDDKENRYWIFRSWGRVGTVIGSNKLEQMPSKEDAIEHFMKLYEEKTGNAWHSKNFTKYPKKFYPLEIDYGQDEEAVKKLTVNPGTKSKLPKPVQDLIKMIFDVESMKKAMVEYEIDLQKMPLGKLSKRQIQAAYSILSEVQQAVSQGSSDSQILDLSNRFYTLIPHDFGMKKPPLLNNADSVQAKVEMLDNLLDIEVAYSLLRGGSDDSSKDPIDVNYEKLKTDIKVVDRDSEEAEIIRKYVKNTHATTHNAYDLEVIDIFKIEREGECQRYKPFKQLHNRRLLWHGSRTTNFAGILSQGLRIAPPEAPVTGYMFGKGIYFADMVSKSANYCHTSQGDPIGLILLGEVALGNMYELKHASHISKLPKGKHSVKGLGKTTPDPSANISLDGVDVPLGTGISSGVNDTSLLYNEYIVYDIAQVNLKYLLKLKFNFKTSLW

Results are given in words; binding and its absence hold for the method and conditions named. In cells and extracts the contact can be indirect. Some binding calls cover weakened binding; strength is not graded here.

One test addresses SMAD4 (WT) (UniProt Q13485). As to the kind of experiment: co-IP; HEK293FT cells with SMAD4 and PARP1 constructs (WT and mutants); lysis in NETN buffer (20 mM Tris-HCl pH 8.0, 100 mM NaCl, 1 mM EDTA, 0.5% NP-40), affinity beads overnight at 4 °C; bait of each panel not given.
For the next test, the target named is SMAD4 A118V mutant (UniProt Q13485). The test is described as above.
A further test deals with SMAD4 L109Q mutant (UniProt Q13485). The test is described as above.
For another test, the target named is SMAD4 C71Y mutant (UniProt Q13485). Described as above.
The next test concerns the target SMAD4-2LA mutant (UniProt Q13485). The description is as above.
In the next test the target is SMAD4 L57S mutant (UniProt Q13485). The description is as above.
The target in a further test is SMAD4 A96D mutant (UniProt Q13485). The test is described as above.
A further test concerns the target Flag-TurboID-SMAD4-2LA (UniProt Q13485). Nature of the test: co-IP; HEK293FT cells transfected with Flag-TurboID-SMAD4-2LA, treated with irradiation and biotin for indicated time points; SMAD4 co-IP, blot for endogenous PARP1; NETN buffer, 4 °C overnight.

On to PARP1 (WT) (from UniProt P09874 1-1014), for which the binding entry in the test with SMAD4 (WT) is listed as “binds”; with SMAD4 A118V mutant it was “no binding”; in the test with SMAD4 L109Q mutant, “no binding”; with SMAD4 C71Y mutant, “binds”; in the test with SMAD4-2LA mutant, “binds”; with SMAD4 L57S mutant, “no binding”. In addition, the binding result with SMAD4 A96D mutant is recorded as “binds”.

On to “PARP1-E988K mutant (from UniProt P09874 1-1014)”, for which the binding entry with SMAD4 (WT) is listed as “binds”.

With “endogenous PARP1 (from UniProt P09874 1-1014)”, in the test with Flag-TurboID-SMAD4-2LA, the binding entry is listed as “binds”.
